The experiment concerns Plasmodium falciparum NF54/iGP1_RE9H ulg8 stage V gametocytes. Put plainly: gametocyte viability (luciferase signal relative to DMSO control) (% of DMSO control); higher = less gametocytocidal activity, active = 50 or less. The conditions noted are these: exposure time: 72 h. Summed up: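 NF54/iGP1_RE9Hulg8 stage V gametocytes (day 12; ~2.5% gametocytemia, 3% hematocrit) were incubated with compounds at 10 µM or 1 µM final, in one well each, for 72 h at 37 °C in medium with 0.5% Albumax II. Luminescence after D-luciferin addition was read on an IVIS Lumina II. Viability refers to the mean of plate DMSO vehicle wells.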

Molecules are shown by their SMILES. Where a name gives a salt, the structure may show the parent alone. In all, about 1,300 compounds went through this assay and about 40 (3%) showed activity. The list shows a part of the results.

These results are taken from the supplement of paper PMC12297408.

As to `Cc1cnc(NC(=O)C2=C(O)c3ccccc3S(=O)(=O)N2C)s1` [Meloxicam], the gametocyte viability was inactive: 81.5 (concentration: 1 µM) and inactive: 79.9 (concentration: 10 µM).
Consider `O=C(O)COC(=O)Cc1ccccc1Nc1c(Cl)cccc1Cl` [Aceclofenac], for which the gametocyte viability is inactive: 85.9 (concentration: 1 µM) and inactive: 87.7 (concentration: 10 µM).
`Cc1nnc(NS(=O)(=O)c2ccc(N)cc2)s1` [Sulfamethizole]: the gametocyte viability by setting is: (concentration: 1 µM) inactive: 77; (concentration: 10 µM) inactive: 84.6.
In the same order, the values of `CCN1CCN(c2cc3c(cc2F)c(=O)c(C(=O)O)cn3C2CC2)CC1` [Enrofloxacin] are inactive: 83 and inactive: 84.3.
In the case of `CCN1CCC[C@H]1CNC(=O)c1c(OC)ccc(Br)c1OC` [Remoxipride Hydrochloride], the gametocyte viability was inactive: 90.6 (concentration: 1 µM) and inactive: 88 (concentration: 10 µM).
Turning to `CC1CC(OC(=O)C(O)c2ccccc2)CC(C)(C)N1C` (configuration not stated) [Eucatropine hydrochloride], the gametocyte viability (concentration: 1 µM) was inactive: 85.2 and the gametocyte viability (concentration: 10 µM) was inactive: 90.2.
`CN(C)CCOc1ccc(/C(=C(/CCCl)c2ccccc2)c2ccccc2)cc1` [Toremifene]: the gametocyte viability was inactive: 84.6 (concentration: 1 µM) and inactive: 84.4 (concentration: 10 µM).
The matching figures for `CCN1CCN(C(=O)N[C@@H](C(=O)N[C@@H]2C(=O)N3C(C(=O)O)=C(CSc4nnnn4C)CS[C@H]23)c2ccc(O)cc2)C(=O)C1=O` [Cefoperazone dihydrate]: inactive: 79.3 and inactive: 83.8.
As to `C=C1/C(=C\C=C2/CCC[C@]3(C)[C@@H]([C@H](C)/C=C/[C@@H](O)C4CC4)CC[C@@H]23)C[C@@H](O)C[C@@H]1O` [Calcipotriene], the gametocyte viability is inactive: 79.2 (concentration: 1 µM) and inactive: 64.3 (concentration: 10 µM).
As to `Cc1ccc(Cl)c(Nc2ccccc2C(=O)O)c1Cl` [Meclofenamic acid sodium salt monohydrate], the gametocyte viability reads like this: (concentration: 1 µM) inactive: 84.6; (concentration: 10 µM) inactive: 83.3.
For `O=C(NCCO[N+](=O)[O-])c1cccnc1` [Nicorandil], the gametocyte viability runs as follows: (concentration: 1 µM) inactive: 90.5; (concentration: 10 µM) inactive: 89.6.
On to `COC(=O)Nc1nc2ccc(SC(C)C)cc2[nH]1` [Methiazole], for which the gametocyte viability (concentration: 1 µM) is inactive: 79.3 and the gametocyte viability (concentration: 10 µM) is inactive: 85.9.
On to `CC1=Nc2ccc(Cl)cc2S(=O)(=O)N1` [Diazoxide], for which the gametocyte viability was inactive: 86.1 (concentration: 1 µM) and inactive: 84 (concentration: 10 µM).
The matching figures for `Oc1ccc(OCc2ccccc2)cc1` [Monobenzone]: inactive: 95.8 and inactive: 80.5.
As to `C[C@H]1C[C@H]2[C@@H]3CCC4=CC(=O)C=C[C@]4(C)[C@@]3(F)[C@@H](O)C[C@]2(C)[C@@]1(O)C(=O)CO` [Betamethasone], the gametocyte viability runs as follows: (concentration: 1 µM) inactive: 94.9; (concentration: 10 µM) inactive: 82.8.
On to `O=C(O)/C=C/c1ccc(Cn2ccnc2)cc1` [Ozagrel hydrochloride], for which the gametocyte viability (concentration: 1 µM) is inactive: 97.5 and the gametocyte viability (concentration: 10 µM) was inactive: 92.7.
Turning to `CCCc1nc(C)c2c(=O)nc(-c3cc(S(=O)(=O)N4CCN(CC)CC4)ccc3OCC)[nH]n12` [Vardenafil], the gametocyte viability is inactive: 70.1 (concentration: 1 µM) and active: 43.9 (concentration: 10 µM).
Take `CCn1nc(C(=O)O)c(=O)c2cc3c(cc21)OCO3` [Cinoxacin]: the gametocyte viability (concentration: 1 µM) was inactive: 97.4 and the gametocyte viability (concentration: 10 µM) is inactive: 95.3.
Consider `Cc1cc(/C=C/c2ccc3cc(N(C)C)ccc3[n+]2C)c(C)n1-c1ccccc1` [Pyrvinium pamoate], for which the gametocyte viability reads like this: (concentration: 1 µM) inactive: 83; (concentration: 10 µM) inactive: 57.4.
`CCCCNc1ccc(C(=O)OCCOCCOCCOCCOCCOCCOCCOCCOCCOC)cc1` [Benzonatate]: the gametocyte viability was inactive: 95.9 (concentration: 1 µM) and inactive: 96.6 (concentration: 10 µM).
The matching figures for `COCCOC(=O)C1=C(C)NC(C)=C(C(=O)OC/C=C/c2ccccc2)C1c1cccc([N+](=O)[O-])c1` (configuration not stated) [Cilnidipine]: inactive: 89.1 and inactive: 81.
Regarding `CC[C@H]1OC(=O)[C@H](C)[C@@H](O[C@H]2C[C@@](C)(OC)[C@@H](O)[C@H](C)O2)[C@H](C)[C@@H](O[C@@H]2O[C@H](C)C[C@H](N(C)C)[C@H]2O)[C@](C)(O)C[C@@H](C)[C@@H]2N[C@@H](COCCOC)O[C@H]([C@H]2C)[C@]1(C)O` [Dirithromycin], the gametocyte viability runs as follows: (concentration: 1 µM) inactive: 84.4; (concentration: 10 µM) inactive: 87.
In the same order, the values of `O=C1CC2(CCCC2)CC(=O)N1CCCCN1CCN(c2ncccn2)CC1` [Buspirone hydrochloride] are inactive: 83.9 and inactive: 65.7.
On to `C[C@H](O)C(=O)Nc1c(I)c(C(=O)NC(CO)CO)c(I)c(C(=O)NC(CO)CO)c1I` [Iopamidol], for which the gametocyte viability is, setting by setting: (concentration: 1 µM) inactive: 87.1; (concentration: 10 µM) inactive: 87.1.
For `CC(C)CC(=O)N[C@H](C(=O)N[C@H](C(=O)N[C@@H](CC(C)C)[C@@H](O)CC(=O)N[C@@H](C)C(=O)N[C@@H](CC(C)C)[C@@H](O)CC(=O)O)C(C)C)C(C)C` [Pepstatin A], the gametocyte viability was inactive: 81.2 (concentration: 1 µM) and inactive: 84.5 (concentration: 10 µM).
Consider `CC1Cc2ccccc2N1NC(=O)c1ccc(Cl)c(S(N)(=O)=O)c1` (configuration not stated) [Indapamide], for which the gametocyte viability is, setting by setting: (concentration: 1 µM) inactive: 84.6; (concentration: 10 µM) inactive: 87.5.
For `Nc1ccc(S(=O)(=O)Nc2ccnn2-c2ccccc2)cc1` [Sulfaphenazole], the gametocyte viability runs as follows: (concentration: 1 µM) inactive: 86.3; (concentration: 10 µM) inactive: 87.1.
For `O=C(NCC(O)CO)c1c(I)c(C(=O)NCC(O)CO)c(I)c(N(CCO)C(=O)CO)c1I` (configuration not stated) [Ioversol], the gametocyte viability is, setting by setting: (concentration: 1 µM) inactive: 87.9; (concentration: 10 µM) inactive: 56.7.
Turning to `CO/N=C(\C(=O)N[C@@H]1C(=O)N2C(C(=O)O)=C(COC(N)=O)CS[C@H]12)c1ccco1` [Cefuroxime sodium salt], the gametocyte viability (concentration: 1 µM) is inactive: 94.7 and the gametocyte viability (concentration: 10 µM) was inactive: 93.2.
`Cc1cc(CC(=O)O)n(C)c1C(=O)c1ccc(Cl)cc1` [Zomepirac sodium salt]: the gametocyte viability is, setting by setting: (concentration: 1 µM) inactive: 88.2; (concentration: 10 µM) inactive: 91.8.
For `COc1ccc(C2CNC(=O)C2)cc1OC1CCCC1` (configuration not stated) [Rolipram], the gametocyte viability by setting is: (concentration: 1 µM) inactive: 89.7; (concentration: 10 µM) inactive: 92.
Regarding `O=C1OCCN1/N=C/c1ccc([N+](=O)[O-])o1` [Furazolidone], the gametocyte viability runs as follows: (concentration: 1 µM) inactive: 86.6; (concentration: 10 µM) inactive: 89.3.
The matching figures for `O=S(=O)(O)c1cc(O)ccc1O` [Ethamsylate]: inactive: 93.1 and inactive: 95.7.
Regarding `CCC(=O)O[C@]1(C(=O)CCl)[C@@H](C)C[C@H]2[C@@H]3CCC4=CC(=O)C=C[C@]4(C)[C@@]3(F)[C@@H](O)C[C@@]21C` [Clobetasol propionate], the gametocyte viability (concentration: 1 µM) was inactive: 95.1 and the gametocyte viability (concentration: 10 µM) was inactive: 88.8.
Consider `c1ccc([C@H]2CN3CCSC3=N2)cc1` [Levamisole hydrochloride], for which the gametocyte viability is, setting by setting: (concentration: 1 µM) inactive: 84.2; (concentration: 10 µM) inactive: 81.4.
For the compound `CC(C)NCC(O)c1ccc2ccccc2c1` (configuration not stated) [Pronethalol hydrochloride], the gametocyte viability was inactive: 90 (concentration: 1 µM) and inactive: 89.8 (concentration: 10 µM).
In the case of `Nc1nc2n[nH]nc2c(=O)[nH]1` [Azaguanine-8], the gametocyte viability (concentration: 1 µM) is inactive: 95 and the gametocyte viability (concentration: 10 µM) was inactive: 97.8.
For the compound `CN(C)c1nc(N(C)C)nc(N(C)C)n1` [Altretamine], the gametocyte viability runs as follows: (concentration: 1 µM) inactive: 90.8; (concentration: 10 µM) inactive: 91.3.
On to `CCCNCC(O)COc1ccccc1C(=O)CCc1ccccc1` (configuration not stated) [Propafenone hydrochloride], for which the gametocyte viability was inactive: 81.6 (concentration: 1 µM) and inactive: 75.7 (concentration: 10 µM).
Regarding `NC(=O)C(c1ccccc1)(c1ccccc1)[C@@H]1CCN(CCc2ccc3c(c2)CCO3)C1` [Darifenacin hydrobromide], the gametocyte viability is inactive: 81.7 (concentration: 1 µM) and inactive: 84.2 (concentration: 10 µM).
Take `COc1cc([C@@H]2c3cc4c(cc3[C@@H](O[C@@H]3O[C@@H]5CO[C@@H](C)O[C@H]5[C@H](O)[C@H]3O)[C@H]3COC(=O)[C@H]23)OCO4)cc(OC)c1O` [Etoposide]: the gametocyte viability (concentration: 1 µM) was inactive: 84.9 and the gametocyte viability (concentration: 10 µM) was inactive: 91.
Consider `COc1ccccc1OCC(O)CN1CCN(CC(=O)Nc2c(C)cccc2C)CC1` (configuration not stated) [Ranolazine], for which the gametocyte viability was inactive: 88.9 (concentration: 1 µM) and inactive: 78.4 (concentration: 10 µM).
For the compound `C[C@H]1C[C@@H]2[C@H]([C@@H](O)C[C@@]3(C)[C@H]2CC[C@]3(O)C(=O)CO)[C@@]2(C)C=CC(=O)C=C12` [Methylprednisolone, 6-alpha], the gametocyte viability (concentration: 1 µM) is inactive: 84.3 and the gametocyte viability (concentration: 10 µM) was inactive: 79.2.
In the same order, the values of `CNCC(O)c1ccc(OC(=O)C(C)(C)C)c(OC(=O)C(C)(C)C)c1` (configuration not stated) [Dipivefrin hydrochloride] are inactive: 85.8 and inactive: 89.3.
For `CC(C)NCC(O)c1ccc(O)c(O)c1` (single isomer, unassigned; (+)) [(+)-Isoproterenol (+)-bitartrate salt], the gametocyte viability runs as follows: (concentration: 1 µM) inactive: 100; (concentration: 10 µM) inactive: 97.8.
The matching figures for `CCN(CC)CCc1nc(-c2ccccc2)no1` [Oxalamine citrate salt]: inactive: 98.8 and inactive: 89.9.
In the case of `CC(C)NC[C@@H](O)COc1cccc2ccccc12` [(R)-Propranolol hydrochloride], the gametocyte viability by setting is: (concentration: 1 µM) inactive: 93.4; (concentration: 10 µM) inactive: 89.
As to `Cc1c(N(C)CS(=O)(=O)O)c(=O)n(-c2ccccc2)n1C` [Dipyrone], the gametocyte viability reads like this: (concentration: 1 µM) inactive: 82.8; (concentration: 10 µM) inactive: 85.5.
As for `CC(NCCC(c1ccccc1)c1ccccc1)c1ccccc1` (configuration not stated) [Fendiline hydrochloride], the gametocyte viability is inactive: 90 (concentration: 1 µM) and inactive: 83.2 (concentration: 10 µM).
Regarding `O=c1[nH]c(=O)n(C2CCCO2)cc1F` (configuration not stated) [Tegafur], the gametocyte viability is inactive: 82.6 (concentration: 1 µM) and inactive: 82.6 (concentration: 10 µM).
Regarding `CN1CCN(c2c(F)cc3c(=O)c(C(=O)O)cn(CCF)c3c2F)CC1` [Fleroxacin], the gametocyte viability is inactive: 85.4 (concentration: 1 µM) and inactive: 89.8 (concentration: 10 µM).
Take `C[C@H](CCC(=O)O)[C@H]1CC[C@H]2[C@@H]3[C@H](O)C[C@@H]4C[C@H](O)CC[C@]4(C)[C@H]3CC[C@]12C` [Chenodiol]: the gametocyte viability is inactive: 83.3 (concentration: 1 µM) and inactive: 82.6 (concentration: 10 µM).
The matching figures for `NNc1nncc2ccccc12` [Hydralazine hydrochloride]: inactive: 94.8 and active: 12.8.
Regarding `CC(=O)OCC(CCn1cnc2cnc(N)nc21)COC(C)=O` [Famciclovir], the gametocyte viability runs as follows: (concentration: 1 µM) inactive: 84; (concentration: 10 µM) inactive: 80.3.
The matching figures for `COc1c2occc2c(OC)c2c(=O)cc(C)oc12` [Khellin]: inactive: 92 and inactive: 94.7.
Turning to `CC[C@H](C)C(=O)O[C@H]1CCC=C2C=C[C@H](C)[C@H](CC[C@@H]3C[C@@H](O)CC(=O)O3)[C@H]21` [Mevastatin], the gametocyte viability by setting is: (concentration: 1 µM) inactive: 85.9; (concentration: 10 µM) inactive: 86.7.
